Measured values: PubChem BioAssay AID1948 (National Center for Advancing Translational Sciences (NCATS), 2009)
Hit rate of the full screen: of about 110,000 compounds, about 20 (0.02%) were called active. Inconclusive means that the source gave no clear call. Such entries were picked first, then a sample of the others. The call rests on the fitted dose curve; in most records, active means well fitted activation curve with a large enough effect; inconclusive means small, poorly fitted or top-dose-only effect; inactive means no such curve, though single readings can be large or run the other way. Potencies of inconclusive entries are left out as doubtful fits.

experiment: qHTS Assay for Compounds that Induce Erasure of Genomic Imprints; conditions: mouse ES Peg3-LacZ reporter, beta-gal luminescence, 40 h; activity change, positive = activation: at 10.9 µM (top of the series) unless noted;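 on activity change, positive = activation: 0% = negative control wells on the plate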
In short: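 Readout: BetaGlo luminescence (5 min, room temp) for LacZ from the normally silent maternal Peg3 allele in female Peg3LacZ-Neo ES cells. Cells 300/well, 40 h, 37C, 5% CO2. Data normalized per plate to negative controls.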
Potency means the concentration at half of the fitted maximal effect; tags describe the fitted curve by direction and shape.

| SMILES | Potency | activity change, positive = activation |
| --- | --- | --- |
| O=S(=O)(O)CCCc1cccc2ccccc12 | inconclusive [activator, single point] | – |
| CCn1c2ccccc2c2nnc(SCc3ccccc3)nc21 | – | inactive: -21% [at 60.7 µM] |
| Cc1ccc(Cn2c(=O)n(CC3CCC(C(=O)N4CCC(C)CC4)CC3)c(=O)c3sccc32)cc1 (configuration not stated) | – | inconclusive: 32.3% [activator] |
| Cc1ccc(CNC(=O)c2c(O)nc3ccccn3c2=O)cc1 | – | inconclusive: 40.2% [activator] |
| COc1ccc(CCNC(=O)CSc2nnnn2-c2ccccc2OC)cc1OC | inconclusive [activator, single point] | – |
| CCNc1cc2n(c(=O)n1)CCc1cc(OC)c(OC)cc1-2 | – | inactive: -12.8% [at 60.7 µM] |
| CC(C)(C)C(=O)Nc1nnc2n1CCS2 | – | inactive: -11.5% |
| O=C(COc1ccc(Cl)cc1)Nc1nnc(S(=O)(=O)N2CCc3ccccc32)s1 | – | inconclusive: 32.4% [activator] |
| CCOc1ccc(N2CC(c3nc4ccccc4n3CCCOc3ccccc3)CC2=O)cc1 (configuration not stated) | – | inactive: -4.53% |
| CSc1ccc(CCNC(=O)c2ccc(-c3nc(COc4ccccc4)c(C)o3)cc2)cc1 | – | inconclusive: 63.7% [activator] |
| CN(Cc1ccco1)c1ccnc(-c2ccccc2C(F)(F)F)n1 | inconclusive [activator, single point] | – |
| COc1ccc(N(C(=O)c2ccc(OC)c(OC)c2)S(=O)(=O)c2ccc(Cl)cc2)cc1 | – | inactive: -15.5% |
| Cc1ccc2nc(-c3ccc(Cl)c(NC(=O)COc4cccc(C)c4C)c3)oc2c1 | – | inactive: -4.71% |
| CCCc1cc(=O)[nH]c2nnc(SC(C)CC)n12 (configuration not stated) | – | inconclusive: 33.4% [activator] |
| CCOC(=O)c1[nH]c(COC(=O)C2CC(=O)N(Cc3ccccc3)C2)c(C(=O)OCC)c1C (configuration not stated) | inconclusive [activator, partial curve] | – |
| CCNc1ncc2ncc(=O)n(Cc3cccc(OC)c3)c2n1 | inconclusive [activator, single point] | – |
| COc1cc(C2C(C(=O)Nc3ccccc3C)=C(C)Nc3ncnn32)ccc1OCC(N)=O (configuration not stated) | – | inconclusive: 30.5% [activator] |
| CCOc1ccc(Cn2c(CNS(=O)(=O)c3ccc(Cl)s3)nc3cccnc32)cc1 | – | inactive: -6.32% |
| Nc1ccc(N2CCN(c3ncc(C(F)(F)F)cc3Cl)CC2)c(C(F)(F)F)c1 | – | inconclusive: 63.2% [activator] |

| SMILES | Potency | activity change, positive = activation |
| --- | --- | --- |
| Cc1csc2ncc(C(=O)NCc3ccc4c(c3)OCO4)c(=O)n12 | inconclusive [activator, single point] | – |
| COCC(=O)NCc1nc2cccnc2n1Cc1ccc(F)cc1 | – | inconclusive: 39.6% [activator] |
| Cc1cc(NC(=O)CSc2nc(-c3cccs3)cc(C(F)(F)F)n2)no1 | – | inactive: -19.9% [at 60.7 µM] |
| CCOc1ccccc1-c1nc(-c2cc3ccccc3nc2OC)no1 | inconclusive [activator, single point] | – |
| c1cncc(-c2cc(-n3ccnc3)ncn2)c1 | inconclusive [activator, single point] | – |
| CCCC(=O)NCc1nc2cccnc2n1Cc1ccc(F)cc1 | – | inconclusive: 38.8% [activator] |
| CC1Cc2cc(S(=O)(=O)NCc3ccc(F)cc3)ccc2N1C(=O)C1CCC1 (configuration not stated) | – | inactive: -14.3% |
| Cc1sc2nc(SCC(=O)NCc3ccco3)[nH]c(=O)c2c1C | inconclusive [activator, single point] | – |
| c1ccc(CN2CCC3(CC2)SSC2(CCN(Cc4ccccc4)CC2)SS3)cc1 | – | inactive: -4.8% |
| CCNc1ncc2nc(-c3ccc(OC)cc3)c(=O)n(C[C@H]3CCCO3)c2n1 | inconclusive [activator, single point] | – |
| CCN1CCN(Cc2ccc(NC(=O)Nc3ccccc3OC)cc2)CC1 | – | inactive: 2.28% [at 60.7 µM] |
| CN(C)c1ccc(-c2cncnc2NCCc2cnc[nH]2)cc1 | inconclusive [activator, single point] | – |
| CCOc1ccc(C2=C(C(C)=O)Sc3nnc(C)n3N2C(C)=O)cc1 | – | inactive: -16.9% |
| CCCOc1ccc(C(=O)Nc2cccc(NC(=O)c3ccc(Cl)cc3Cl)c2)cc1 | – | inactive: -12.6% |
| c1ccc(SCCc2ccncc2)cc1 | inconclusive [activator, single point] | – |
| O=C(NCCc1csc(-c2ccc(C(F)(F)F)cc2)n1)c1ccccc1Cl | – | inconclusive: 37.2% [activator] |
| Cc1ccc(OCc2nc(C#N)c(NCc3ccco3)o2)cc1 | inconclusive [activator, single point] | – |
| Cc1ccc(C(=O)NCc2cccs2)cc1S(=O)(=O)N1CCCCC1 | inconclusive [activator, single point] | – |
